In ChEMBL document CHEMBL4888484, “Replenishing the malaria drug discovery pipeline: Screening and hit evaluation of the MMV Hit Generation Library 1 (HGL1) against asexual blood stage Plasmodium falciparum ,using a nano luciferase reporter read-out” (2022):
In all, about 150,000 compounds went through this assay and about 540 (0.36%) showed an effect of 50% or more. The list shows a part of the results.

What follows are compounds tested on Plasmodium falciparum (assay: Primary screen in NF54 nanoGlo assay, in single point, at 2uM, 72h; a lower Z score goes with more inhibition). Details: timepoint 72 hour.
Assay type: functional, Erythrocyte
With Cc1ccc(C)c(C2CCN(C(=O)[C@H](C)N3C(=O)CCC3=O)CC2)c1 the “% Inhibition” value was 5% and the Z score was -0.61.
For CC[C@@](C)(C#N)NC(=O)c1ccc(OC)c(OC)c1, the “% Inhibition” value was -14% and the Z score was 2.94.
C[C@@H](NC(=O)N[C@@H]1CCNC1)C(c1ccccc1)c1ccccc1 was tested, and the “% Inhibition” value was -7% and the Z score was 0.87.
With C[C@@H](Cc1ccc(C(F)(F)F)cc1)C(=O)N(C)c1nccs1 the “% Inhibition” value was 14% and the Z score was -1.49.
Cc1ccc(-c2cn(CCN3CCCOC3=O)nn2)o1 was tested, and the “% Inhibition” value was -16% and the Z score was 2.13.
CC[C@H](NC(=O)c1[nH]nc(C)c1Cl)c1nccs1 was tested, and the “% Inhibition” value was 2% and the Z score was -0.39.
COc1ccccc1CN(C(=O)c1ccco1)c1nc2[nH]c(C)c(Cc3ccccc3)c(=O)n2n1 was tested, and the “% Inhibition” value was -11% and the Z score was 1.07.
For CCCC(CCC)NC(=O)c1cncn1-c1cccc(-c2ccccc2C(F)(F)F)c1, the “% Inhibition” value was -5% and the Z score was 0.68.
With CC(C)[C@@H]1N(C(=O)COc2ccc(CO)cc2)CC12CCC2 the “% Inhibition” value was -4% and the Z score was 0.7.
In the case of CN1CCN(CCc2nc(Cc3c(Cl)cccc3Cl)no2)CC1, the “% Inhibition” value is reported as 28% and the Z score is reported as -3.14.
For O=C(c1ccoc1)N1CCc2oncc2C1, the “% Inhibition” value was -12% and the Z score was 1.94.
Cc1ccc(CNCc2cccc(C3CC3)c2)c(=O)n1C was tested, and the “% Inhibition” value was -15% and the Z score was 2.34.
In the case of O=C1CCCN1[C@H]1CCN(S(=O)(=O)CC2CCC2)C1, the “% Inhibition” value is reported as 4% and the Z score is reported as -0.3.
In the case of O=c1[nH]c2nc(N3CCN(c4cccc(Cl)c4)CC3)ncc2c(=O)n1C1CCCC1, the “% Inhibition” value is reported as -5% and the Z score is reported as 0.53.
With CC(C)OCC[C@H](O)CNc1cnn(Cc2nnc3n2CCCC3)c1 the “% Inhibition” value was -1% and the Z score was 0.12.
Cc1ccccc1OCC(=O)NCc1c(C)ncc2c1CCNC2 was tested, and the “% Inhibition” value was -15% and the Z score was 1.87.
With CN(C[C@H]1COc2ccccc2O1)C(=O)c1cnn[nH]1 the “% Inhibition” value was -2% and the Z score was 0.3.
In the case of CCCn1ncc(-c2cc(-c3cc(O)ccc3OC)c(C#N)c(N)n2)c1C, the “% Inhibition” value is reported as -6% and the Z score is reported as 0.87.
Cc1cc(C(=O)N(C)C2(C#N)CCC2)c(C)n1-c1ccc2c(c1)OCCO2 was tested, and the “% Inhibition” value was -8% and the Z score was 0.8.
For CC1=C(C(=O)Nc2ccccc2)[C@H](c2ccc(Cl)cc2)N=C(Nc2nc3ccccc3s2)N1, the “% Inhibition” value was 33% and the Z score was -3.7.
For COc1ccc(S(=O)(=O)CCNC(=O)c2n[nH]c3c2CCC3)cc1, the “% Inhibition” value was -15% and the Z score was 2.29.
For CCCn1cnc2ccc(-c3noc(CNS(=O)(=O)c4ccccc4)n3)cc21, the “% Inhibition” value was -27% and the Z score was 4.62.
For CN(C)c1cnc(C(=O)NCc2noc3c2CCCC3)cn1, the “% Inhibition” value was 0% and the Z score was -0.05.
For CC(C)(C)OC(=O)N1CC(c2ncc(Br)cn2)C1, the “% Inhibition” value was -15% and the Z score was 1.88.
With Cn1c(C(F)(F)F)nn(C2CCN(C(=O)c3cncc(F)c3)CC2)c1=O the “% Inhibition” value was -10% and the Z score was 1.1.
For O=C(Nc1nccs1)N1CCN(Cc2cn3cc(Cl)ccc3n2)CC1, the “% Inhibition” value was 7% and the Z score was -1.02.
COc1ccc(F)cc1C(NC(=O)c1[nH]nc(C)c1Cl)[C@H]1C[C@@H](O)C1 (stereo not given in full) was tested, and the “% Inhibition” value was 1% and the Z score was -0.22.
CCc1ocnc1C(=O)N1CCC[C@H](c2[nH]ncc2-c2ccc(C)cc2)C1 was tested, and the “% Inhibition” value was -10% and the Z score was 1.18.
For O=C(CCc1ccc(Cl)c(C(F)(F)F)c1)NCc1cccnc1-c1ccco1, the “% Inhibition” value was -13% and the Z score was 2.36.
In the case of Cc1nc2ccc(NC(=O)c3cncc(Br)c3)cc2s1, the “% Inhibition” value is reported as -23% and the Z score is reported as 4.36.
CCc1ncc(NC(=O)N2CCCN(C)CC2)cn1 was tested, and the “% Inhibition” value was -13% and the Z score was 2.11.
In the case of Cc1ccc(Cn2cc(-c3ccncc3)cc2C(=O)N2CCN(CC(C)C)CC2)cc1, the “% Inhibition” value is reported as 8% and the Z score is reported as -0.89.
In the case of CCCc1cc(C(=O)NCCc2c[nH]cn2)no1, the “% Inhibition” value is reported as -2% and the Z score is reported as 0.44.
For Cc1noc(C)c1CC(=O)N[C@H]1CCc2ccccc21, the “% Inhibition” value was -10% and the Z score was 1.16.
For Cn1c(Cl)cnc1CN1CCc2ccccc21, the “% Inhibition” value was 4% and the Z score was -0.52.
c1ccc(-c2nnc(-c3cccnc3NCCc3cccs3)o2)cc1 was tested, and the “% Inhibition” value was -13% and the Z score was 1.23.
With Cc1cccc2nc(CCNC(=O)N[C@H]3CC(=O)N(C)C3)cn12 the “% Inhibition” value was -2% and the Z score was 0.23.
O=C(c1ccc2nsnc2c1)N1CCN(c2ccc(-c3ccco3)nn2)CC1 was tested, and the “% Inhibition” value was -6% and the Z score was 0.95.
With CC(c1nnnn1C1CCCCC1)N1CCOC(c2cccc(O)c2)C1 (stereo not given) the “% Inhibition” value was 7% and the Z score was -1.16.
For O=C(c1ccc2c(c1)OCCCO2)N1CCN(S(=O)(=O)c2ccc(Br)cc2)CC1, the “% Inhibition” value was -14% and the Z score was 1.63.
O=C(CN1C(=O)CCc2cc(Br)ccc21)NCc1cccnc1 was tested, and the “% Inhibition” value was -13% and the Z score was 1.74.
For CC1CC(C)CN(C2CCN(C(=O)c3ccc4c(=O)n5c(nc4c3)CCCCCC5)CC2)C1 (stereo not given), the “% Inhibition” value was -3% and the Z score was 0.63.
O=C(CCc1ccccc1)N1CC[C@H](CCOc2ccccc2F)C1 was tested, and the “% Inhibition” value was -12% and the Z score was 2.33.
CCCc1[nH]nc(-c2cccc(F)c2)c1NC(=O)Cc1ccccc1 was tested, and the “% Inhibition” value was -7% and the Z score was 1.15.
In the case of CC[C@@](C)(COc1ncccc1Cl)NC(=O)c1cnn(C)c1N, the “% Inhibition” value is reported as 9% and the Z score is reported as -0.94.
Cc1cccc(CNC(=O)c2c(C)noc2-c2ccco2)c1 was tested, and the “% Inhibition” value was 0% and the Z score was -0.03.
With COCc1nc(Cc2cc(OC)ccc2OC)n(-c2ccccc2C(=O)O)n1 the “% Inhibition” value was -3% and the Z score was 0.37.
With O=C(Cn1cnc2ccccc21)N1C2CCC1CC(n1ccnn1)C2 (stereo not given) the “% Inhibition” value was 3% and the Z score was -0.49.
With CC(C)C(=O)N1CCCCCCN(C)C(=O)[C@@H]2CCC[C@@H]21 the “% Inhibition” value was -9% and the Z score was 1.1.
For CCc1cccc(S(=O)(=O)N2C3CCC2CC(=O)C3)c1, the “% Inhibition” value was -5% and the Z score was 0.44.
In the case of COC[C@H](C)C1CCN(C(=O)C(=O)c2ccco2)CC1, the “% Inhibition” value is reported as -13% and the Z score is reported as 1.23.
FC(F)n1ccnc1CNc1cccc2c1OCCC2 was tested, and the “% Inhibition” value was -6% and the Z score was 0.67.
COC(=O)/C(=N/Nc1ccccc1C)N1CCCc2ccccc21 was tested, and the “% Inhibition” value was 2% and the Z score was -0.24.
For CCN1CCCC[C@@H]1CNC(=O)c1cncnc1, the “% Inhibition” value was 0% and the Z score was -0.07.
With CCC[C@@H](CNc1nc(C)ccc1C(N)=O)N(C)C the “% Inhibition” value was -3% and the Z score was 0.53.
For COC(=O)CCNC(=O)c1cn2c(n1)C[C@@H](C)CC2, the “% Inhibition” value was -1% and the Z score was 0.08.
Cc1cc(C)nc(N2CCC3(CC2)OCCO3)n1 was tested, and the “% Inhibition” value was -4% and the Z score was 0.55.
With C[C@H]1CNC(=O)CCN1Cc1c[nH]nc1-c1ccc(F)cc1 the “% Inhibition” value was 6% and the Z score was -0.8.
In the case of O=S(=O)(c1ccc(Cl)cc1)C1CNC1, the “% Inhibition” value is reported as 4% and the Z score is reported as -0.5.
For CCc1ccc([C@@H]2CN(C(=O)Nc3cccc(N4CCCC4=O)c3)CCO2)cc1, the “% Inhibition” value was -4% and the Z score was 0.49.
In the case of Cn1cc(NC(=O)[C@]2(C)Oc3ccc(Cl)cc3NC2=O)cn1, the “% Inhibition” value is reported as 26% and the Z score is reported as -3.56.
For O=C(NC[C@H]1CC[C@H](CO)CC1)c1cncc(O)n1, the “% Inhibition” value was -6% and the Z score was 1.15.
For CCNc1ncc(S(=O)(=O)N[C@H](CC)CO)cc1C(F)(F)F, the “% Inhibition” value was 0% and the Z score was 0.01.
In the case of C[C@H]1CCN(c2ccc(NC(=O)NC3CCC(O)CC3)cc2)C1 (stereo not given in full), the “% Inhibition” value is reported as -4% and the Z score is reported as 0.68.
In the case of CCCN(CCC)C(=O)c1nc(Cc2ccccc2)n(-c2ccccc2)n1, the “% Inhibition” value is reported as -7% and the Z score is reported as 0.9.
In the case of CC[C@H](O)Cn1ncnc1Cn1nc(C)cc1C, the “% Inhibition” value is reported as -3% and the Z score is reported as 0.5.
For O=C(c1ccc(C#Cc2ccccc2)cc1)N1CCN(C/C=C/c2ccccc2)CC1, the “% Inhibition” value was 7% and the Z score was -0.79.
In the case of CN(C)c1nc(-c2cccc3c2O[C@@H](CN)C3)ncc1F, the “% Inhibition” value is reported as -6% and the Z score is reported as 1.06.
In the case of CCOCCN1C[C@H](NC(=O)CN2CCCC2=O)[C@@H](c2ccccc2)C1, the “% Inhibition” value is reported as -7% and the Z score is reported as 1.33.
In the case of COc1ccccc1NC(=O)NC1C2CCC(C2)C1CO (stereo not given), the “% Inhibition” value is reported as -10% and the Z score is reported as 1.61.
In the case of COCCO[C@H]1CN(C2CCN(C(=O)c3ccc4[nH]ccc4c3)CC2)C12CCCCC2, the “% Inhibition” value is reported as -6% and the Z score is reported as 1.03.
In the case of CC(C)CO/C(=N/C(=O)c1ccc(F)cc1)NCCN1CCOCC1, the “% Inhibition” value is reported as -3% and the Z score is reported as 0.41.
For CN(C)c1ncc(C(=O)Nc2ccc3c(c2)OCO3)cn1, the “% Inhibition” value was -6% and the Z score was 0.92.
Cc1c(-c2ccccc2F)[nH]c2ccc(CNC(=O)c3cc(N)[nH]n3)cc12 was tested, and the “% Inhibition” value was -7% and the Z score was 0.86.
CCOc1ccccc1NC(=O)Cn1nc2ccc(C(=O)Nc3cccc(C)c3)cn2c1=O was tested, and the “% Inhibition” value was -18% and the Z score was 1.55.
For CCC(CC)n1ccc(-c2nc(-c3ccncc3)no2)n1, the “% Inhibition” value was -4% and the Z score was 0.36.
In the case of O=C([C@@H]1CNc2ccccc2O1)N1CCCCC1, the “% Inhibition” value is reported as -16% and the Z score is reported as 3.01.
Cn1c(=O)n(C)c(=O)n(CC(=O)Nc2ccc3c(c2)OCO3)c1=O was tested, and the “% Inhibition” value was -8% and the Z score was 0.8.
For CC(C(C)S(C)(=O)=O)N(C)CC(=O)N(C)Cc1ccco1 (stereo not given), the “% Inhibition” value was -11% and the Z score was 1.48.
CC(C)[C@@H]1CN(CCc2nnn[nH]2)CCCN1Cc1ccc(F)cc1 was tested, and the “% Inhibition” value was -17% and the Z score was 1.55.
With CC(C)(C)n1nnnc1[C@@H]1CC2(CCOCC2)C(=O)N1CCc1nc2ccccc2[nH]1 the “% Inhibition” value was -8% and the Z score was 0.93.
In the case of CCC[C@H](NC)C(=O)NCc1cc2c(nc1OC)CN(C1CCCC1)C2=O, the “% Inhibition” value is reported as -10% and the Z score is reported as 1.36.
For COc1c2ccc(C(=O)N3CC(S(=O)(=O)Cc4ccco4)C3)cc2nn1C, the “% Inhibition” value was 5% and the Z score was -0.7.
With CCOc1ccc([C@@H]2c3[nH]c4ccccc4c3CCN2Cc2nccn2CC)cc1 the “% Inhibition” value was -7% and the Z score was 0.77.
For Cc1cc(Cc2ccc(S(=O)(=O)N3CCN(c4cccc(Cl)c4)CC3)cc2)c(=O)[nH]n1, the “% Inhibition” value was -20% and the Z score was 2.
